{"source": "PubChem BioAssay AID1240", "about": "(Sanford-Burnham Center for Chemical Genomics, 2008)", "note": "About 800 (1.6%) of roughly 50,000 compounds showed an effect of 50% or more. This is one part of the list.", "data": [{"target": "Bcl-2-like protein 10 (Homo sapiens) (UniProt Q9HD36)", "sequence (Q9HD36 whole entry, looked up)": "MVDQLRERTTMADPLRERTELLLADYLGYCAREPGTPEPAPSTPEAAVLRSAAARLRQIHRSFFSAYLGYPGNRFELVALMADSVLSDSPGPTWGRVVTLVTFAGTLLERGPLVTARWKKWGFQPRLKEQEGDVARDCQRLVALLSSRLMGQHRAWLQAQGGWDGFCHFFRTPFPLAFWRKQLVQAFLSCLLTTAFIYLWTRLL", "assay": "Phenotype converters, Bcl-B/TR3 peptide binding displacement, primary biochemical FP (AID 1240);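 also: 0% = Bcl-B with tracer peptide and DMSO and 100% = tracer peptide lacking Bcl-B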", "conditions": "GST-Bcl-B / FITC-TR3 peptide fluorescence polarization; stronger effect = higher value; compound at 3.75 mg/L", "units": {"displacement": "%"}, "values": [{"compound": "CC(=O)C1=C(O)C(=O)N(CCN2CCNCC2)C1c1cccc(F)c1", "note": "(centres undefined)", "displacement": -17.2}, {"compound": "O=C1NC(=S)N(c2cccc(Br)c2)C(=O)/C1=C/c1ccc(Cl)cc1", "displacement": 16.9}, {"compound": "CSc1ccc(-c2ncnn2-c2cccc(Cl)c2)cc1", "displacement": -4.7}, {"compound": "Cc1ccc(-c2csc(Nc3cccc(O)c3)n2)c(C)c1", "displacement": 1.9}, {"compound": "Cn1c(=O)n(Cc2ccccc2Cl)c2ccccc21", "displacement": 13.9}, {"compound": "Nc1nc(-c2ccccc2)cc(N2CCCC2)n1", "displacement": 15.1}, {"compound": "O=C1C2ON(c3ccccc3)C(c3ccc([N+](=O)[O-])cc3)C2C(=O)N1Cc1ccccc1", "note": "(centres undefined)", "displacement": 8.5}, {"compound": "COc1ccc(OC)c(/C=N/Nc2nc(C)c(C)s2)c1", "displacement": -8.5}, {"compound": "CCCOC(=O)c1ccc(N=Cc2ccc([N+](=O)[O-])cc2)cc1", "displacement": 8.2}, {"compound": "COC(=O)C1=NNC2C(=O)N(c3cccc(C)c3C)C(=O)C12", "note": "(centres undefined)", "displacement": -5.7}, {"compound": "CCCc1cc(C(=O)OC)c(NC(=O)c2ccc(OCC(C)C)cc2)s1", "displacement": -4.5}, {"compound": "CCc1ccc2oc(-c3cccc(NC(=O)c4ccc5c(c4)OCCO5)c3)nc2c1", "displacement": 0.9}, {"compound": "COc1cccc(C=Nc2cc(Cl)cc(Cl)c2)c1O", "displacement": -9}, {"compound": "O=C(/C=C/c1cc2c(cc1Br)OCO2)c1cccc([N+](=O)[O-])c1", "displacement": 9.2}, {"compound": "CC(NS(=O)(=O)c1cc(Cl)ccc1Cl)c1ccccc1", "note": "(centres undefined)", "displacement": -2.5}, {"compound": "O=C(O)C1C2CCC(C2)C1C(=O)Nc1nc(-c2ccc(Cl)c(Cl)c2)cs1", "note": "(centres undefined)", "displacement": -11}, {"compound": "COC(=O)c1ccc(C(=O)OC)c(NC(=O)C(C(C)C)N2C(=O)c3ccccc3C2=O)c1", "note": "(centres undefined)", "displacement": -4.5}, {"compound": "O=C(O)CCC(=O)N1N=C(c2ccc(Br)cc2)CC1c1ccc(Br)cc1", "note": "(centres undefined)", "displacement": -5.3}, {"compound": "COc1ccc(CN2CCN(C3CCCCC3)CC2)c(OC)c1", "displacement": -11.9}, {"compound": "O=c1/c(=C/c2ccc(Sc3ccccc3)o2)sc2nc3ccccc3n12", "displacement": 48.5}, {"compound": "CC(=O)Nc1ccc(NC(=S)Nc2ccccc2)cc1", "displacement": -14.9}, {"compound": "O=C(Nc1cccc2ccccc12)c1ccc(Br)o1", "displacement": 0}, {"compound": "COc1c(Cl)cc(C(=O)Nc2cc(Cl)cc(Cl)c2)cc1Cl", "displacement": 2.3}, {"compound": "CC1=NN(C(=O)c2ccc(Br)cc2)C(O)(c2ccccc2)C1", "note": "(centres undefined)", "displacement": 9.2}, {"compound": "C=CCn1c(C(O)c2ccccc2)nc2ccccc21", "note": "(centres undefined)", "displacement": -0.3}, {"compound": "O=C(CC1S/C(=N\\N=C2/CCCc3ccccc32)NC1=O)Nc1ccccc1F", "note": "(centres undefined)", "displacement": -5.1}, {"compound": "COc1ccc(C2(CNS(=O)(=O)c3ccccc3)CCCC2)cc1OC", "displacement": -9.7}, {"compound": "COc1ccc(Cl)cc1S(=O)(=O)N1CCN(C)CC1", "displacement": -10.1}, {"compound": "Cc1ccc(CNC(=O)C(=O)Nc2ccc(C)c(C)c2)cc1", "displacement": 2.8}, {"compound": "CC(C)COc1ccc(C(=O)Nc2ccc(NC(=O)c3ccco3)c(Cl)c2)cc1", "displacement": -5.1}, {"compound": "CCCCC(=O)Nc1ncc2c(n1)CC(C)(C)CC2=O", "displacement": 1}, {"compound": "COc1ccccc1CN1CCN(Cc2c[nH]c3ccccc23)CC1", "displacement": -4.6}, {"compound": "CCOC(=O)C1CCN(C(=O)COc2ccc(C)cc2C)CC1", "displacement": 4.2}, {"compound": "O=C1NC(=S)N/C1=C\\c1ccc(Oc2ccc([N+](=O)[O-])cn2)cc1", "displacement": 101}, {"compound": "CC(C)C(=O)N1c2ccccc2C(N(C(=O)c2ccc(F)cc2)c2ccccc2)CC1C", "note": "(centres undefined)", "displacement": 16.4}, {"compound": "CCOC(=O)c1c(NC(=O)C(C)Oc2ccc(Cl)cc2Cl)sc(C(N)=O)c1C", "note": "(centres undefined)", "displacement": -1.8}, {"compound": "CN(C(=O)c1ccc(Br)cc1)c1ccccc1", "displacement": -8}, {"compound": "Cc1ccc(-c2csc(NC(=O)CC(C)C)n2)c(C)c1", "displacement": -6.6}, {"compound": "COc1cc(NC(=O)c2cc(C(F)(F)F)cc(C(F)(F)F)c2)c(OC)cc1NC(C)=O", "displacement": -0.1}, {"compound": "CCOc1ccc(-c2nnc(-c3ccc4c(c3)OCO4)o2)cc1", "displacement": -2.3}, {"compound": "O=S(=O)(Nc1ccc(Br)cn1)c1ccccc1", "displacement": 9.5}, {"compound": "Cc1cc(C)c(C(=O)c2ccc(C(N)=O)cc2)c(C)c1", "displacement": 6.5}, {"compound": "O=C(Nc1nc(-c2ccc(F)cc2)cs1)c1ccc([N+](=O)[O-])cc1Cl", "displacement": -2.8}, {"compound": "Cc1ccc(-c2nc3cc(Cl)ccc3o2)cc1NC(=O)c1cccs1", "displacement": 2.3}, {"compound": "Cc1ccc(/C=C(/C#N)c2nc3ccc(C)cc3[nH]2)cc1", "displacement": 4.5}, {"compound": "CCOC(=O)N(Cc1ccccc1)C(C(=O)O)C(C(=O)O)N(Cc1ccccc1)C(=O)OCC", "note": "(centres undefined)", "displacement": 6.3}, {"compound": "Cc1ccc(N(CC(=O)Nc2ccccc2F)S(=O)(=O)c2ccc(F)cc2)cc1", "displacement": -34}, {"compound": "COc1ccc(NS(=O)(=O)c2ccc(C)cc2)cc1[N+](=O)[O-]", "displacement": -1.5}, {"compound": "O=C(COc1ccc2ccccc2c1)NCCCN1CCOCC1", "displacement": 0.9}, {"compound": "CCc1ccc(/C=C2\\C(=O)N(c3ccc(Cl)c(C(=O)O)c3)N=C2C)cc1", "displacement": 3.1}, {"compound": "COCCNC(=O)c1nn2c(C(F)(F)F)cc(-c3ccc(OC)c(OC)c3)nc2c1Cl", "displacement": 155}, {"compound": "O=C(O)COc1ccccc1/C=C1/SC(=S)N(NC(=O)c2ccc(Cl)cc2)C1=O", "displacement": 10.7}, {"compound": "CCOC(=O)c1c(NC(=O)c2ccc(Cl)cc2Cl)sc(C)c1C", "displacement": 6.1}, {"compound": "COc1ccc(C2=C/C(=C\\c3ccc(OC(C)=O)cc3)C(=O)O2)cc1", "displacement": 110}, {"compound": "O=C(NC(c1ccccc1)c1ccccc1)C(Sc1ccccc1)c1ccccc1", "note": "(centres undefined)", "displacement": 18.5}, {"compound": "COc1ccc(N2C(=O)NC(=O)/C(=C/c3cc(Br)c(OC)c(OC)c3)C2=O)cc1", "displacement": 11.6}, {"compound": "C/C(=C1/SC(N2CCCC2)=NC1=O)c1ccc(Cl)cc1", "displacement": -11.2}, {"compound": "COc1cc(NC(=O)c2cc3n(n2)C(C(F)(F)F)CC(c2ccc(Br)cc2)N3)cc([N+](=O)[O-])c1", "note": "(centres undefined)", "displacement": 3.8}, {"compound": "Cc1ccc(N2C(=O)C3C(C2=O)C2(C)C(=O)C3(C)C(c3ccccc3)=C2c2ccccc2)cc1Cl", "note": "(centres undefined)", "displacement": -1.1}, {"compound": "CCOC1CC(c2ccccc2)=NN1c1ccccc1", "note": "(centres undefined)", "displacement": -14.3}, {"compound": "COc1ccc(OC)c(N=Cc2c(O)n(-c3cc(OC)ccc3OC)c(=O)[nH]c2=O)c1", "displacement": 2.9}, {"compound": "O=C(NC(C(=O)c1ccccc1)N1CCOCC1)c1ccco1", "note": "(centres undefined)", "displacement": 16.5}, {"compound": "N/C(=N\\OC(=O)COc1ccccc1)c1ccc(Br)cc1", "displacement": 13.5}, {"compound": "CSC(=O)NC12CC3CC(CC(C)(C3)C1)C2", "displacement": -6.3}, {"compound": "CCOC(=O)C1=C(O)/C(=C\\c2ccc(Cl)cc2Cl)N=C1C", "displacement": 12.1}, {"compound": "COc1cc(/C=C2/C(=O)NC(=O)N(c3ccc(C(C)C)cc3)C2=O)ccc1O", "displacement": 5.5}, {"compound": "CC(C)(C)NC(=O)c1cc(N)cc(N)c1", "displacement": 39.1}, {"compound": "Cc1cc([N+](=O)[O-])ccc1NC(=O)CCCOc1ccc(Cl)cc1Cl", "displacement": -13.3}, {"compound": "COc1ccccc1OCCCOc1ccc(Cl)c(C)c1", "displacement": 16.9}, {"compound": "COc1cc(/C=C2\\SC(=S)N(Cc3ccccc3)C2=O)ccc1OC(=O)c1ccc(Cl)cc1", "displacement": -0.6}, {"compound": "Nc1ccc(C(=O)Nc2cccc(O)c2)cc1", "displacement": 11.4}, {"compound": "O=C(Oc1cccc2ccccc12)c1cccc([N+](=O)[O-])c1", "displacement": 6.1}, {"compound": "COc1cc(/C=C2\\C(=O)NC(=O)N(c3ccc(C)c(C)c3)C2=O)cc(Cl)c1O", "displacement": 2.3}, {"compound": "CCn1c2ccccc2c2cc(NC(=O)c3ccc(OC)cc3OC)ccc21", "displacement": -3.5}, {"compound": "O=C1N/C(=N\\N=C\\c2ccc(O)cc2)SC1c1ccccc1", "note": "(centres undefined)", "displacement": -6.8}, {"compound": "CC(NC(=O)CN(c1ccccc1)S(=O)(=O)c1ccccc1[N+](=O)[O-])c1ccccc1", "note": "(centres undefined)", "displacement": 14.2}, {"compound": "CCOC(=O)c1c(NC(=O)c2ccncc2)sc(C(C)=O)c1C", "displacement": -6.5}, {"compound": "Cc1ccc([N+](=O)[O-])cc1Cc1ccc(Cl)cc1", "displacement": 8.5}, {"compound": "O=C(NCc1cccs1)c1sc2cc(F)ccc2c1Cl", "displacement": -3.8}, {"compound": "COc1ccc(C(=O)/C=C\\Nc2ccc([N+](=O)[O-])cc2)cc1", "displacement": -57.2}, {"compound": "O=C1C(=C/C=C/c2ccccc2)C(=O)c2ccccc21", "displacement": 75}, {"compound": "CCOC(=O)c1c(NC(NC(=O)c2ccco2)C(=O)c2ccccc2)sc2c1CCCC2", "note": "(centres undefined)", "displacement": 4.5}, {"compound": "O=C1C2CC=C(Cl)CC2C(=O)N1CNc1ccccc1-c1ccccc1", "note": "(centres undefined)", "displacement": 2.3}, {"compound": "O=C1CC(NCCc2ccccc2)C(=O)N1c1ccc(F)cc1", "note": "(centres undefined)", "displacement": 5.6}, {"compound": "CC1=C(C#N)c2nc(N)c(C#N)c(C)c2/C1=C\\c1ccc(-c2ccc(Cl)cc2)o1", "displacement": -3.3}, {"compound": "O=C(CN1CCOCC1)Nc1cc(C(F)(F)F)cc(NC(=O)CN2CCOCC2)c1Cl", "displacement": -12.1}, {"compound": "COc1ccc(C(C2=C(O)CC(C)(C)CC2=O)C2C(=O)CC(C)(C)CC2=O)cc1OC", "note": "(centres undefined)", "displacement": 18.9}, {"compound": "CC(=O)NC1=NC(=O)/C(=C\\c2ccc(C(C)C)cc2)S1", "displacement": -10.2}, {"compound": "Cc1ccc(NC(=O)CSC(N)=O)cc1C", "displacement": -40.7}, {"compound": "C=CCc1cccc2cc(C(=O)NCc3ccco3)c(=O)oc12", "displacement": 1.9}, {"compound": "Cc1c(Cl)cccc1NC(=O)COc1ccc(Cl)cc1", "displacement": 15.9}, {"compound": "Cc1ccc(NC(=O)Cc2nc3ccccc3n2CCC#N)cc1", "displacement": -1.8}, {"compound": "O=C1C(Nc2ccccc2)=CC(c2cccc([N+](=O)[O-])c2)N1c1ccccc1", "note": "(centres undefined)", "displacement": 1.6}, {"compound": "O=C(OCc1nc2c(ccc3ccccc32)[nH]1)C1CCCCC1", "displacement": -1.2}, {"compound": "CC(=O)NS(=O)(=O)c1ccc(NC(=O)Nc2ccc(Cl)c(Cl)c2)cc1", "displacement": 3.4}, {"compound": "COc1cc([N+](=O)[O-])cc(C=C2C(=O)N(C)C(=O)N(C)C2=O)c1O", "displacement": -2.5}, {"compound": "COc1ccccc1N1CCN(C2CC(=O)N(C)C2=O)CC1", "note": "(centres undefined)", "displacement": -7.9}, {"compound": "COc1ccc2c(c1)c1c3n2CCN(C(=S)Nc2ccccc2)C3CCC1", "note": "(centres undefined)", "displacement": 6.7}, {"compound": "Cc1ccc(C)c(S(=O)(=O)n2cnc3ccccc32)c1", "displacement": 4.5}, {"compound": "COc1ccc2c(c1OC)C(=O)N1N=C(c3ccc(I)cc3)CC21", "note": "(centres undefined)", "displacement": 1.3}, {"compound": "O=S(=O)(c1ccc(Oc2ccccc2)cc1)N1CCCCCC1", "displacement": -8.7}, {"compound": "O=C(Nc1ccccc1F)c1ccc2nccnc2c1", "displacement": 2.8}, {"compound": "Cc1ccc(-c2[nH]n3c(=O)c4c(nc3c2C)CCS4)cc1", "displacement": -0.6}, {"compound": "CCOC(=O)c1c(N)sc(C(=O)Nc2ccc(C)cc2C)c1C", "displacement": -2.7}, {"compound": "Cc1ccccc1NCC(=O)N/N=C\\c1ccc(-c2cccc(Cl)c2)o1", "displacement": 5.1}, {"compound": "NC(=O)c1ccc(Sc2nc3ccccc3s2)c([N+](=O)[O-])c1", "displacement": 1.4}, {"compound": "CCOC(=O)Cc1csc(NC(=O)c2ccco2)n1", "displacement": -5}, {"compound": "Cc1ccc(C(=O)Nc2ccc(NC(=O)c3cccc(C)c3)cc2)cc1", "displacement": 14}, {"compound": "CCCOc1ccc(/C=C2\\SC(=S)N(NC(=O)c3ccncc3)C2=O)cc1OC", "displacement": -2.9}]}]}
